The chains are these.
B1: PhoQ; a variant is named by its letters at X, in order, P23837 (parent)
chain: MKKLLRLFFPLSLRVRFLLATAAVVLVLSLAYGMVALIGYSVSFDKTTFRLLRGESNLFYTLAKWENNKLHVELPENIDKQSPTMTLIYDENGQLLWAQRDVPWLMKMIQPDWLKSNGFHEIEADVNDTSLLLSGDHSIQQQLQEVREDDDDAEMTHSVAVNVYPATSRMPKLTIVVVDTIPVELKSSYMVWSWFIYVLSANLLLVIPLLWVAAWWSLRPIEALAKEVRELEEHNRELLNPATTRELTSLVRNLNRLLKSERERYDKYRTTLTDLTHSLKTPLXXLQXXLRSLRSEKMSVSDAEPVMLEQISRISQQIGYYLHRASMRGGTLLSRELHPVAPLLDNLTSALNKVYQRKGVNISLDISPEISFVGEQNDFVEVMGNVLDNACKYCLEFVEISARQTDEHLYIVVEDDGPGIPLSKREVIFDRGQRVDTLRPGQGVGLAVAREITEQYEGKIVAGESMLGGARMEVIFGRQHSAPKDE

Our source for the enrichment ratio values is a collection of fitness landscapes (doi:10.1126/science.1257360).

The list shows a part of the results.

Variants of B1 are the subject of the assay. The assay is described as follows: enrichment ratio after two sorts for PhoP signalling (ratio (wild type AVST 3.29)); higher = more functional. The following applies: with PhoP (E. coli).
On to IYGN, for which the enrichment ratio is no more than 0.25.

With WYHD, the enrichment ratio is no more than 0.25.

In the case of NQFI, the enrichment ratio is no more than 0.25.

MAHI: the enrichment ratio stood at 24.7.

As for ITRP, the enrichment ratio is no more than 0.25.

Regarding VVTH, the enrichment ratio is no more than 0.25.

With HNER, the enrichment ratio is no more than 0.25.

As for WCLR, the enrichment ratio is no more than 0.25.

Take HTLW: the enrichment ratio is no more than 0.25.

As to QLGR, the enrichment ratio is no more than 0.25.

Consider FMRN, for which the enrichment ratio is no more than 0.25.

In the case of IMGS, the enrichment ratio was no more than 0.25.

Turning to FKVQ, the enrichment ratio was no more than 0.25.

Take VCSC: the enrichment ratio was no more than 0.25.

With IWGS, the enrichment ratio was no more than 0.25.

As for HHRC, the enrichment ratio is no more than 0.25.

As to FAIY, the enrichment ratio is no more than 0.25.

As for GIMG, the enrichment ratio was 8.1.

On to FPAV, for which the enrichment ratio is no more than 0.25.

Turning to HANL, the enrichment ratio was no more than 0.25.

Consider YDMQ, for which the enrichment ratio is no more than 0.25.

On to TYLV, for which the enrichment ratio worked out at 2.37.

WSWF: the enrichment ratio is no more than 0.25.

Turning to SAWW, the enrichment ratio is no more than 0.25.

For HGLL, the enrichment ratio came to 9.56.

In the case of TMFF, the enrichment ratio is no more than 0.25.

Regarding YTPH, the enrichment ratio is no more than 0.25.

As for ITRQ, the enrichment ratio was no more than 0.25.

On to FGLF, for which the enrichment ratio was determined as 2.06.

Regarding SHMM, the enrichment ratio was found to be 2.18.

As to EQVD, the enrichment ratio was no more than 0.25.

For PGVR, the enrichment ratio was no more than 0.25.

In the case of LDRT, the enrichment ratio is no more than 0.25.

As to YAPF, the enrichment ratio was no more than 0.25.

As to QMHL, the enrichment ratio came out at 4.14.

With FNPC, the enrichment ratio was no more than 0.25.

Consider PIYA, for which the enrichment ratio is no more than 0.25.

AFTF: the enrichment ratio is no more than 0.25.

For the variant TISP, the enrichment ratio is no more than 0.25.

For the variant SQFT, the enrichment ratio was no more than 0.25.

In the case of PMWH, the enrichment ratio is no more than 0.25.

Regarding DCIQ, the enrichment ratio is no more than 0.25.

As for AKII, the enrichment ratio amounted to 13.6.

For the variant HSTQ, the enrichment ratio is no more than 0.25.

For KKCM, the enrichment ratio was no more than 0.25.

As for HEQY, the enrichment ratio was no more than 0.25.

Take QNYR: the enrichment ratio is no more than 0.25.

With KLHA, the enrichment ratio was no more than 0.25.

As for SIDV, the enrichment ratio is no more than 0.25.

For RKNR, the enrichment ratio was no more than 0.25.

As to GPNY, the enrichment ratio is no more than 0.25.

In the case of EPRV, the enrichment ratio is no more than 0.25.

Turning to IKWS, the enrichment ratio was no more than 0.25.

As for HNCG, the enrichment ratio is no more than 0.25.

On to WAYQ, for which the enrichment ratio is no more than 0.25.

For FKTV, the enrichment ratio was no more than 0.25.

On to YGDN, for which the enrichment ratio was no more than 0.25.

On to CSVP, for which the enrichment ratio was no more than 0.25.

As to AMMY, the enrichment ratio is 7.81.

For the variant IVMA, the enrichment ratio was no more than 0.25.

For LRAD, the enrichment ratio is no more than 0.25.

For the variant VVGV, the enrichment ratio is no more than 0.25.

Regarding MYVM, the enrichment ratio is no more than 0.25.

Consider SAMH, for which the enrichment ratio amounted to 2.95.

FGHF: the enrichment ratio is no more than 0.25.

For FPCD, the enrichment ratio is no more than 0.25.

In the case of RGCF, the enrichment ratio was no more than 0.25.

For RTIP, the enrichment ratio is no more than 0.25.

With NMIR, the enrichment ratio is no more than 0.25.

As for NARK, the enrichment ratio was no more than 0.25.

With DVTV, the enrichment ratio was no more than 0.25.

Regarding QQPN, the enrichment ratio is no more than 0.25.

As for FAWE, the enrichment ratio is no more than 0.25.

For VAYP, the enrichment ratio was no more than 0.25.

For the variant KCVA, the enrichment ratio is no more than 0.25.

For SGNE, the enrichment ratio is no more than 0.25.

Take KFDD: the enrichment ratio was no more than 0.25.

On to TQRF, for which the enrichment ratio is no more than 0.25.

As for FPTH, the enrichment ratio was no more than 0.25.

With QYRT, the enrichment ratio is no more than 0.25.

For EYKR, the enrichment ratio was no more than 0.25.

In the case of NYGD, the enrichment ratio is no more than 0.25.

QCTG: the enrichment ratio was no more than 0.25.

For GCMA, the enrichment ratio came out at 1.39.

Take NYHF: the enrichment ratio is no more than 0.25.

As to LDTK, the enrichment ratio is no more than 0.25.

In the case of CFRY, the enrichment ratio was no more than 0.25.

In the case of PTMM, the enrichment ratio was no more than 0.25.

Take LHLG: the enrichment ratio is no more than 0.25.

Turning to KIGS, the enrichment ratio is no more than 0.25.

With WCLN, the enrichment ratio is no more than 0.25.

In the case of ALWQ, the enrichment ratio is no more than 0.25.

LCGR: the enrichment ratio was no more than 0.25.

On to HKDD, for which the enrichment ratio is no more than 0.25.

Consider VPDL, for which the enrichment ratio was no more than 0.25.

On to SWTN, for which the enrichment ratio was no more than 0.25.

As to SQPH, the enrichment ratio was no more than 0.25.

Take KLHV: the enrichment ratio was no more than 0.25.

As to META, the enrichment ratio is no more than 0.25.

As to VHRR, the enrichment ratio is no more than 0.25.

With MKTF, the enrichment ratio was no more than 0.25.

Consider SSWN, for which the enrichment ratio was no more than 0.25.

For the variant NYGY, the enrichment ratio is no more than 0.25.

For WWLM, the enrichment ratio was no more than 0.25.

In the case of PSNQ, the enrichment ratio was no more than 0.25.

Regarding SQFN, the enrichment ratio is no more than 0.25.

As for VCVE, the enrichment ratio was no more than 0.25.

For the variant SLIK, the enrichment ratio was no more than 0.25.

Consider AQMW, for which the enrichment ratio is no more than 0.25.

On to NGPN, for which the enrichment ratio is no more than 0.25.

Take MLNF: the enrichment ratio is no more than 0.25.

For the variant TGKN, the enrichment ratio is no more than 0.25.

For EIIP, the enrichment ratio was no more than 0.25.

For the variant ATKR, the enrichment ratio was no more than 0.25.

Take QQFV: the enrichment ratio was found to be 3.62.

Turning to EEYI, the enrichment ratio was no more than 0.25.

As for LMMG, the enrichment ratio was no more than 0.25.

As to SWGI, the enrichment ratio is no more than 0.25.

As for VWFI, the enrichment ratio is no more than 0.25.

In the case of DYHL, the enrichment ratio is no more than 0.25.

Consider REPW, for which the enrichment ratio is no more than 0.25.

For IAPT, the enrichment ratio is no more than 0.25.

KPLY: the enrichment ratio was no more than 0.25.

In the case of TCAP, the enrichment ratio is no more than 0.25.

With PAVC, the enrichment ratio was no more than 0.25.

NAYE: the enrichment ratio was no more than 0.25.

Take KTNR: the enrichment ratio is no more than 0.25.

As to IPTP, the enrichment ratio was no more than 0.25.

Take DPIS: the enrichment ratio was no more than 0.25.

Turning to MNCW, the enrichment ratio was no more than 0.25.

As to TNYK, the enrichment ratio is no more than 0.25.

Consider DNFT, for which the enrichment ratio was no more than 0.25.

In the case of HVLP, the enrichment ratio was no more than 0.25.

Regarding RVGV, the enrichment ratio was no more than 0.25.

With TASH, the enrichment ratio is 11.7.

As to WLQK, the enrichment ratio is no more than 0.25.

For the variant NYAP, the enrichment ratio was no more than 0.25.

In the case of KNFG, the enrichment ratio is no more than 0.25.

QGLF: the enrichment ratio was determined as 1.25.

Turning to TFIN, the enrichment ratio was no more than 0.25.

PGKG: the enrichment ratio was no more than 0.25.

Turning to VSVQ, the enrichment ratio is no more than 0.25.

For LEPI, the enrichment ratio was no more than 0.25.

Turning to ICSG, the enrichment ratio is no more than 0.25.

As for SNPP, the enrichment ratio is no more than 0.25.

HTFN: the enrichment ratio is no more than 0.25.

For the variant SQRG, the enrichment ratio was 0.463.

For the variant DWSL, the enrichment ratio was no more than 0.25.

On to WYVP, for which the enrichment ratio was no more than 0.25.

Consider YAAE, for which the enrichment ratio is no more than 0.25.

As to NWSD, the enrichment ratio is no more than 0.25.

Consider MTIM, for which the enrichment ratio is 25.3.

Take YNLD: the enrichment ratio was no more than 0.25.
